± gives the standard deviation of the averaged measurements. This is one part of the list.

In this experiment the test system is PfAP2-G AP2 domain (GST-tagged). Put plainly: gcPBM binding intensity (ln(normalized median fluorescence intensity)); higher = stronger DNA binding. In short, it runs like this:
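Probes on an Agilent 4 × 180k array were primer-extended, double-stranded and 36 bp long, taken from intergenic genomic regions, with negative controls added. GST-tagged P. falciparum DNA-binding domains from E. coli, about 25 μg on average, were applied to the array for 1 h in 1× PBS containing 1% milk, 0.2 mg/ml BSA, 0.5% salmon testes DNA and 0.03% Triton X-100. Binding intensity, obtained after Alexa488 anti-GST antibody detection and a 488 nm scan, is the highest Masliner-normalised natural-log median intensity across replicate spots of either probe orientation.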
Take “AATATAGTTCAATATACACACCCCTTTATTCATTTT [CACACA_site3625]”: the “gcPBM binding intensity (ln)” value was 9.94 ± 0.12.
In the case of “GTAACATACACATATACACACACACCGATATACATA [CACACA_site8278]” it was 10.2 ± 0.18; in that of “TATACAATCTATATAACACACATATTTATATAAAAT [CACACA_site1797]”, 9.84 ± 0.057; in that of “ATTAATTAAGGCACATGTACAAAATATTTTTTATAA [XGTACX_site1964]”, 10.8 ± 0.45.
In the case of “ATATAATATATGTATACACACATATTATATAATATT [CACACA_site3699]” it was 9.995 ± 0.035; in that of “ATGAACAGTTCATGTTGTACAATCTCCATTTTTTAC [XGTACX_site3933]”, 11.2 ± 0.6; in that of “ACAAAACGAACATACGCATGTGTGTACATTAATATA [TGCATGCA_site922]”, 11.3 ± 0.77.
In the case of “TTATTTACATCAAGTACATGCAGTAAAAAAAAAAAA [TGCATGCA_site351]” it was 11 ± 0.82.
As for “CACCAATTCCTATGCACACACATCTGCATATTATAT [CACACA_site5049]”, the “gcPBM binding intensity (ln)” value was 10.21 ± 0.099.
The result for “TGTCGGCTTAGATTAGTGCACTGAAAAATGAAGTAT [GTGCAC_site9919]” reads 10.3 ± 0.23.
The result for “TATTTATATAAAAATACACACATGAATGGATATATA [CACACA_site6335]” reads 10.03 ± 0.042; that for “CAATATAAAAAACACACACACAAACATATATTTATA [CACACA_site3703]”, 9.96; that for “TATTTTTTTTTTGGGTGTACCTTTTATATATATTGT [XGTACX_site5036]”, 11.3 ± 0.84.
In the case of “ATAATATGAAATATAACACACATATATAAAAACATT [CACACA_site866]” it was 9.96 ± 0.12; in that of “TATACACATTTTTATACACACTTGTTTTATAAAACG [CACACA_site6480]”, 10.2 ± 0.11; in that of “GACGTTATGATACACATACACACAGGGATAAAAAAT [CACACA_site2882]”, 10.5 ± 0.47.
“AATATTATATTTTATTGTACTAATAAAAATATATGC [XGTACX_site5435]”: the “gcPBM binding intensity (ln)” value is 11.2 ± 0.79.
The result for “ATTTAACTAAAGAAGGCACACGTGTTTAAAAAAAAA [CACACA_site5241]” reads 10.1 ± 0.11; that for “CATTTATATATATACACACACACAAAAAAAAAAAAA [CACACA_site2645]”, 10.1 ± 0.49; that for “TATATATATATATATGCATGTACATATATTTGTTAT [TGCATGCA_site379]”, 11.1 ± 0.42.
In the case of “TTTTTTTTTTTTTTTTGTACTTAAAAATTTATATAA [XGTACX_site7718]” it was 11.2 ± 1; in that of “AATGGAATATATATTTGTACATAAATATTATAATAA [XGTACX_site8524]”, 10.9 ± 0.49.
In the case of “TATAAATAAAAATATACACACTGTATTATTGTAATA [CACACA_site7721]” it was 9.79 ± 0.057.
Regarding “ACATAGCAATGTTTCACACACAAGAAAAAATACAAT [CACACA_site2379]”, the “gcPBM binding intensity (ln)” value was 10.08 ± 0.057.
In the case of “GAAATGTGGTAATATACACACACGCATATATTTATA [CACACA_site6285]” it was 10.3 ± 0.26; in that of “TTTGAACTCTTAAGTGGTACAAATTTGTATTTTCTC [XGTACX_site2322]”, 11.1 ± 0.75.
In the case of “TTATTTACAACTTTTTTTTTTTTATTTTATTTTATT [CACACA_negctrl_site341]” it was 9.66 ± 0.21; in that of “TTTACTCCTACAACATGTACATAAAATAAATTTTTT [XGTACX_site5010]”, 11.4 ± 0.88; in that of “ACATGTTAACTAAATGTACACACCTATGTTGATGTA [CACACA_site1821]”, 11.3 ± 0.67.
The result for “TTGATTTATATTTAATGTACATTTTTACAGAAAATT [XGTACX_site2747]” reads 11.1 ± 0.71; that for “CCATAAAAAGGATACACACACACACGCACATATATA [CACACA_site6550]”, 10.5 ± 0.3; that for “GATTAAACACAAAGAAGTACGGACATAAAAAAAAAA [XGTACX_site3686]”, 11.4 ± 0.9.
Regarding “AATATAAGTAGTACAGTGCATATAATAATTAGAAGA [GTGCAC_site9485]”, the “gcPBM binding intensity (ln)” value worked out at 11.6 ± 1.
The result for “GTATATATATATATATATATATATTTTTATTTATTT [CACACA_negctrl_site589]” reads 9.505 ± 0.064; that for TCGTGGTTTTAATAAGTGCGCAATTTAAATATTTTT, 10.2 ± 0.11.
The result for “TATTATTATTATTACACACACAATTATATTTACCCC [CACACA_site503]” reads 10.3 ± 0.36.
In the case of “TATACACCCGGACACACACACATATATATATATATA [CACACA_site5030]” it was 10.8 ± 0.51; in that of “ATATTATATATATAGGTGCGAGTATTTTATAAATAT [GTGCAC_site9889]”, 10.2 ± 0.15.
Regarding “ATATATATATTATATGCACACGTTAAAATTTCATAT [CACACA_site4552]”, the “gcPBM binding intensity (ln)” value was found to be 10.1 ± 0.11.
In the case of “TAAAAATATTAATAAACACACAATGAGATATTGAAT [CACACA_site3153]” it was 9.8 ± 0.27; in that of “AAATATAAAATTTATTGTACATTATATATAATATAT [XGTACX_site1416]”, 10.8 ± 0.52.
For the sequence “TGATATATTTATATTACACACTTAAACGAAAAAAAA [CACACA_site3021]”, the “gcPBM binding intensity (ln)” value was 9.995 ± 0.021.
In the case of “TATTATAATATTTATACACACATAATTTTGATAAAT [CACACA_site583]” it was 9.95 ± 0.16.
In the case of “AAAAAAAATAAAGAGAAAAAAAAAAGAAAATTATAT [GTGCAC_negctrl_site550]” it was 9.62 ± 0.29.
With “TAAATTAATATGTATCGTACAATATATAAAACGATG [XGTACX_site2818]”, the “gcPBM binding intensity (ln)” value came to 10.8 ± 0.49.
As for “CATTCTTGTTTAAAAAGTACATAAACATATATATAT [XGTACX_site1751]”, the “gcPBM binding intensity (ln)” value was determined as 11.3 ± 0.92.
The result for “GTCATAAATGTACGCACACATACATAAACATATACA [CACACA_site650]” reads 11.5 ± 0.93; that for “GTTCTTTTATATATTTGTACATATTTATATATATTG [XGTACX_site4078]”, 11.1 ± 0.57.
In the case of “ACATATTATATAACTCGTACTCGTAAAATATGTTGT [XGTACX_site2240]” it was 11.1 ± 0.62; in that of “TTCTTCTGTTTTATTACACACCATTTTGCGTATACA [CACACA_site2070]”, 10.6 ± 0.47.
In the case of “TAAACATAAATATGCACACATATACATATATTCATA [CACACA_site2667]” it was 9.895 ± 0.021.
As to “AAGAAAAATATATTTATATATATATATATTAAATAT [TGCATGCA_negctrl_site500]”, the “gcPBM binding intensity (ln)” value stood at 9.48 ± 0.16.
The result for “TATATGCCTATAAGAAGTACTGTGTAATGTAATATA [XGTACX_site8089]” reads 11 ± 0.67; that for “AAAGAAAAAAAAAACACACACACACCCATTCAATAT [CACACA_site38]”, 10.2 ± 0.23; that for “TATAATAATATTTATTGTACAATTAGTTTAATTCAT [XGTACX_site272]”, 11 ± 0.52.
In the case of “TTTATTATATAAACATGTACACAATTTGGTATATTC [XGTACX_site3112]” it was 11.5 ± 0.72; in that of “ACAGCCAATACGGAAACACACAAGTTATTTTATCAT [CACACA_site5507]”, 10.07 ± 0.021.
For “AATTTTATACGATAAACATGCAAATAAATAAATAAA [TGCATGCA_site227]”, the “gcPBM binding intensity (ln)” value is 9.985 ± 0.064.
In the case of “ATATAAATTCAAATTACACACATTTATTTTTTTTAC [CACACA_site53]” it was 9.88 ± 0.19; in that of AAATTATGCATCGAGGTGCGTCTTAAAATATAGTGG, 10.2 ± 0.11.
The result for “CTACATAATAAAAAAAGTACATTCTAATAAATTGAC [XGTACX_site4504]” reads 11.4 ± 0.85; that for “ACTAATAATTTGTCGGTGCATAAAATTATTTTTATT [GTGCAC_site9840]”, 10.3 ± 0.22.
The result for “ATATATGTAACATATTGTACATATATGTATGTATGT [XGTACX_site3281]” reads 11.3 ± 0.77; that for “ATGATAAAATTATGTAGTACATATTTGAATGTAAAT [XGTACX_site688]”, 11.5 ± 0.74; that for “GTATTAATAAAAATACGTACTTATTATTTATAATAA [XGTACX_site7672]”, 11.5 ± 1.1.
With “ATTATTCATATAACACGTACAAAACGAAAAACAAAT [XGTACX_site3873]”, the “gcPBM binding intensity (ln)” value came out at 11.3 ± 0.58.
In the case of “AATATCACCACATTGTTACTATAATATATAAAAAAG [XGTACX_negctrl_site384]” it was 10.2 ± 0.26; in that of “AAAAGGAGAAATATTGCACACGTGCAAAATGGTATG [CACACA_site4300]”, 10.1 ± 0.021; in that of “TAATTTCTTATGTAGTGTACAAATAATATATGATAT [XGTACX_site597]”, 11.1 ± 0.72.
In the case of “AATATCTGTATATCCACACACATATATATATATATA [CACACA_site4987]” it was 10.1 ± 0.099.
In the case of “TAATCGGTAATATTAACACACACATTTATATATATT [CACACA_site8274]” it was 10.05 ± 0.078.
With “ATTTTGTTATGAAACACACACATATATATATATATA [CACACA_site3650]”, the “gcPBM binding intensity (ln)” value turned out to be 10.4 ± 0.71.
For the sequence “ATTCATAAAAGTTGTACATGCAATTTTTTTTTTTTT [TGCATGCA_site270]”, the “gcPBM binding intensity (ln)” value is 11.2 ± 0.71.
The result for “AATAAAATAATCCAAGTGCATATGTAAAAATACATT [GTGCAC_site9576]” reads 9.95 ± 0.071.
“AATATATGTAAATGGACACACACATATATATATATA [CACACA_site9220]”: the “gcPBM binding intensity (ln)” value was 10.7 ± 0.57.
The result for “AAAAAAAAAAGACACACACACACACGCATATACATA [CACACA_site7289]” reads 10.2 ± 0.27; that for “TACGTAAAAATAATACGTACATATATTTATAGAAAA [XGTACX_site4959]”, 11.6 ± 0.93.
The result for “ACGGACAATACGGAAACACACAAGTTATTTTATCAT [CACACA_site7310]” reads 10.19 ± 0.035; that for “TTTTTTTTTTTTAAATGTACTTATCAACTTTTATAT [XGTACX_site4641]”, 11 ± 0.79; that for “ACTTATATTATAAATTGTACAAATATTATATTTGGT [XGTACX_site1424]”, 10.8 ± 0.48.
The result for “TTATTTTGTTTATTATGTACACAAAGACATAATAAT [XGTACX_site5648]” reads 11.3 ± 0.89; that for “CACTTACATAATTATTGTACAGATATTATCAAATAA [XGTACX_site567]”, 11 ± 0.6; that for “TGACTTTGTTGAATTTGTCCTCTTAACTCATAATAT [GTGCAC_negctrl_site217]”, 10.6 ± 0.48.
“TTCTGTGTCTAAAAATGTACGGGAATATATAAAAGT [XGTACX_site2090]”: the “gcPBM binding intensity (ln)” value came to 11.1 ± 0.69.
In the case of “ACATAATATATATATTAACACACATCCTTTTATGTA [CACACA_site8317]” it was 10.3 ± 0.13; in that of “TTTAATTTTACATGAGAAACATATTACAATAAAATA [GTGCAC_negctrl_site606]”, 9.8 ± 0.2.
The result for “AACCATGTTAACAATGCATGCATCACTATATAAACG [TGCATGCA_site421]” reads 9.82 ± 0.16.
As for “ATACATATATATAGGTGTACATATAATATATATATA [XGTACX_site2228]”, the “gcPBM binding intensity (ln)” value is 11.6 ± 0.83.
The result for “GAAATACCGGAAAGCAAACACACATTTTAAAACCAT [CACACA_site3861]” reads 10.09 ± 0.049.

The values are drawn from the supplement of paper PMC11417369.
